We go through 58 compounds from PubChem BioAssay AID463173 (ICCB-Longwood Screening Facility, Harvard Medical School, 2010).

In all, about 52,000 compounds went through this assay and about 1,700 (3.3%) were called active. No stated cut-off is given here; in the data, active means survival mostly below about 52% (no sharp cut-off); inactive means mostly above about 56%. The list shows a part of the results.

The test system of the assay is Wild type. As to the kind of experiment: growth inhibition of S. aureus wild type versus tarO mutant, primary screen, teichoic acid synthesis inhibitors, RN4220, OD600 (AID 463173). Particulars: S. aureus RN4220 wild type/DeltatarO growth, OD600, 18 h, active compounds read low, screened at 18.75 µg/mL (by protocol).
For `Cc1c(C(=O)N2CCOCC2)oc2c1-c1nn(CC(=O)NCc3cccc(Cl)c3)cc1CC2`, the survival was inactive: 83%.
For `Cc1sc(-c2cc3c([nH]c2=O)CC(c2ccccc2)CC3=O)nc1-c1ccc(Cl)cc1` (stereo not drawn) the value was inactive: 67%; for `Cc1ccc(CCNC(=O)c2c(C)oc3ncn(CC(C)C)c(=O)c23)cc1`, inactive: 131%.
Take `CC(C)(C)OC(=O)N1CCC(c2c(C(=O)NCCc3ccccc3)cnn2-c2ccc(F)cc2F)CC1`: the survival is inactive: 63%.
As for `COc1ccc(-c2c(C)c3ccc(O)c(CN4CCN(CCO)CC4)c3oc2=O)cc1OC`, the figure is inactive: 86%.
Regarding `O=C(NCc1cccc(F)c1)c1ccc(NC(=O)c2nsc3ccccc23)cc1`, the survival is active: -4%.
For `CCOC(=O)c1c(NC(=O)COc2cccc(C)c2C)sc2c1CCC(CC)C2` (stereo not drawn) the value was inactive: 78%.
On to `Cn1c(=O)oc2cc(S(=O)(=O)N3CCC(C(=O)N4CCN(c5ccccc5F)CC4)CC3)ccc21`, for which the survival was inactive: 93%.
For `COc1cc(Cl)c(C)cc1NC(=O)CC(c1ccc(F)cc1)N1Cc2ccccc2C1=O` (stereo not drawn) the value was active: -2%.
For `CCCCS(=O)(=O)c1oc(-c2ccc(F)cc2)nc1S(=O)(=O)c1ccc(C)cc1` the value was inactive: 33%; for `COc1ccc(OC)c(S(=O)(=O)Nc2cccc(-c3ccc(N4CCCCC4)nn3)c2)c1`, inactive: 84%.
As for `CC(C)(C)c1ccc(C(=O)Nc2onc3c2CCCC3)cc1`, the survival is inactive: 81%.
As for `Cc1ccc(C)c(N2CCN(C(=O)CSCc3ccccc3Cl)CC2)c1`, the figure is inactive: 82%.
For the compound `COc1cccc(NC(=O)CC2Nc3cc(C)c(C)cc3NC2=O)c1` (stereo not drawn), the survival is inactive: 78%.
As for `Cn1ncc(Cl)c1C(=O)O`, the figure is inactive: 95%; as for `Cc1cccc(NC(=O)CCS(=O)(=O)c2cc(Br)cc3c2N(C(=O)C2CC2)CC3)c1`, inactive: 98%; as for `CCOc1ccc(NS(=O)(=O)c2ccc3c4c(cccc24)C(=O)N3)cc1`, inactive: 78%.
For `CC(C)(C)c1ccc(C(=O)NCC(c2ccc(Cl)cc2)N2CCOCC2)cc1` (stereo not drawn) the value was inactive: 117%; for `Cc1ccc(CN(Cc2ccco2)C(=O)COc2ccc(C)c(C)c2)cc1`, inactive: 84%.
In the case of `CCc1ccc(S(=O)(=O)Nc2cccc(-c3ccc(N4CCOCC4)nn3)c2)cc1`, the survival is inactive: 60%.
For `Cc1ccc(CNC(=O)CC2Oc3ccc(Cl)cc3NC2=O)cc1` (stereo not drawn) the value was inactive: 80%; for `COc1ccc(/C=C/C(=O)Nc2nc(-c3cccs3)ns2)cc1OC`, inactive: 65%.
For the compound `CC(=O)c1cccc(NC(=O)CSc2nc3ccccc3nc2Cc2ccc(F)cc2)c1`, the survival is inactive: 73%.
With `CC(=O)Nc1ccccc1-c1nc2ccccc2n(CC(=O)Nc2cccc(C(F)(F)F)c2)c1=O`, the survival was inactive: 56%.
As to `Cc1ccc(CO)cc1Nc1ncnc2onc(-c3ccc(F)cc3)c12`, the survival was inactive: 68%.
For `CCS(=O)(=O)N1CC(=O)N(c2ccc(Cl)cc2)C(C)(C(=O)NC2CCCCC2)C1` (stereo not drawn) the value was inactive: 72%; for `CCOc1cccc2cc(S(=O)(=O)c3ccccc3F)c(=O)oc12`, inactive: 74%.
Turning to `CCN(CC)C(=O)CSc1nc(-c2ccc(C)cc2)nc2c1Cc1c(CO)cnc(C)c1O2`, the survival is inactive: 56%.
As for `CN(N)C1=NS(=O)(=O)c2ccccc21`, the survival was inactive: 96%.
As for `CC1=C(c2ccc(C(C)C)cc2)S(=O)(=O)N=C1N1CCC(C(=O)NCCc2ccco2)CC1`, the survival is active: 1%.
Take `COc1cccc(-c2nc(SCC(=O)NC3CCCC3)c(-c3ccc(C)cc3)[nH]2)c1`: the survival was inactive: 117%.
For `Cc1ccc(CNC(=O)c2ccc3nc(SCc4ccc(F)cc4)[nH]c3c2)cc1` the value was inactive: 76%; for `CCc1ccc(NC(=O)CN(c2cc(C)cc(C)c2)S(=O)(=O)c2c(C)[nH]c(=O)[nH]c2=O)cc1`, inactive: 68%.
Turning to `CC(C)CC(=O)N(c1nnc(-c2cccnc2)s1)C1CCCC1`, the survival was inactive: 98%.
Consider `CC1=C(C(=O)Nc2ccc(F)cc2F)C2(CCN(C(C)C)CC2)OC1=O`, for which the survival was inactive: 22%.
As for `CCCOc1cccc(C(=O)Nc2cc(-c3ccccc3)no2)c1`, the figure is inactive: 87%; as for `Cc1ccc(C(=O)Nc2c(C)nc3ccccn3c2=O)cc1C`, inactive: 69%; as for `CCOc1ccc(CNC(=O)c2ccc3c(c2)nc2n3CCOC2)cc1OC`, active: 1%.
As to `CCc1cccc(NC(=O)C(Cc2ccccc2)n2cccc2)c1` (stereo not drawn), the survival was active: 12%.
As for `CC(C)(C)c1ccc(CSc2n[nH]c(=O)[nH]c2=O)cc1`, the figure is inactive: 117%; as for `COc1ccc(N2CC(NC(=O)c3ccc(S(=O)(=O)N4CCCCC4)cc3)CC2=O)cc1` (stereo not drawn), inactive: 77%; as for `COCCNc1nc(NCc2cccc(Cl)c2)c2cnn(C)c2n1`, inactive: 73%.
As for `CCc1cccc(C)c1NC(=O)Cn1nc(C)c2nn(-c3ccc(Cl)cc3)c(C)c2c1=O`, the figure is inactive: 130%; as for `COc1ccc(/C=C/C(=O)Nc2ccc3nc(N4CCC(C)CC4)cc(C)c3c2)cc1`, inactive: 68%.
Consider `CCC1Oc2ccc(Cl)cc2N(CC(=O)NCCc2ccc(Cl)cc2)C1=O` (stereo not drawn), for which the survival was inactive: 78%.
Regarding `CCCN1Cc2cccc(C(=O)Nc3cccc(C(=O)OCC)c3)c2C1=O`, the survival was inactive: 85%.
Consider `CCCCS(=O)Cc1ccccc1` (stereo not drawn), for which the survival is inactive: 102%.
For `COc1ccccc1C(=O)Nc1ccc2oc(-c3cccc4c(Br)cccc34)nc2c1` the value was inactive: 57%; for `CCN(c1ccccc1)S(=O)(=O)c1c(-c2ccc(C)cc2)csc1C(=O)OC`, inactive: 120%.
As for `COc1ccc2c(c1)cc1c(=O)n(CC(=O)NC3CC3)nc(C)n12`, the figure is inactive: 76%; as for `N#C/C(=C\Nc1ccc2c(c1)OCCO2)c1nc2ccccc2[nH]1`, inactive: 125%; as for `O=C(Cc1csc2nc(-c3ccc(F)cc3)cn12)NCc1ccccc1`, inactive: 70%.
For `O=[N+]([O-])c1cc(-c2nc(-c3ccccc3)no2)ccc1NC1CCCCC1` the value was inactive: 85%; for `CS(=O)(=O)N1CCNCC1`, inactive: 92%.
Consider `COc1ccc(C2c3cc(OC)c(OC)cc3CC(=O)N2c2ccc(C)c(F)c2)cc1` (stereo not drawn), for which the survival was inactive: 79%.
As for `COc1ccccc1CNC(=O)CCn1c(=O)c2cccn2c2cccnc21`, the figure is inactive: 93%; as for `C=Cc1ccc(Cn2c(C)c(CNCc3ccccc3C)c(C(=O)O)c2C)cc1`, inactive: 132%; as for `Cc1ccc(-c2nnc(Nc3ccc(C(=O)N(C)C)cc3)c3ccccc23)cc1S(=O)(=O)N(C)C`, inactive: 77%.
